# About 18,000 (5.8%) of roughly 310,000 compounds were called active. This list was built around the results that the source calls inconclusive (neither active nor inactive); the mix of calls is not that of the screen. Calls follow the shape of the dose curve; as a rule, active = well fitted inhibition curve with a large enough effect; inconclusive = small, poorly fitted or top-dose-only effect, or another doubt; inactive = no such curve, though single readings can be large or run the other way. No potency is given beside an inconclusive call; the fits are too rough.
# Assay: Primary qHTS for delayed death inhibitors of the malarial parasite plastid, 48 hour incubation
# Settings: P. falciparum luciferase growth in erythrocytes; series mostly up to 28.7 µM; activity change, negative = inhibition: at the top concentration
# Procedure, shortened: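 Luminescence readout; reporter = integrated firefly luciferase in P. falciparum. RBC culture at 2% hematocrit, 0.1% parasitemia final, 37 C/5% CO2; decreased signal taken as growth inhibition.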
# % is scaled to controls: 0 for no effect and ±100 for the full control effect; potency is read from the fitted curve at half-maximal effect; tags tell the direction and shape of the fitted curve.
Compound,Potency,"activity change, negative = inhibition"
CC1(c2ccccc2)CC(C)(C)N(C(=O)c2cc([N+](=O)[O-])cc([N+](=O)[O-])c2)c2ccccc21 (stereo not given),"inconclusive [inhibitor, full curve, poor fit]",–
CC[C@@]12CCCN3CCc4c(n(c5ccccc45)C(=O)C1)[C@H]32,"inconclusive [inhibitor, partial curve]",–
N#Cc1c(F)cccc1N1CCC(C#N)CC1,–,inactive: 49.7%
COc1ccccc1NC(=O)N(Cc1ccco1)Cc1cc2ccc(C)c(C)c2[nH]c1=O,"inconclusive [inhibitor, single point]",–
COc1ccc(/C=N/NC(=O)c2ccc(N(C)S(=O)(=O)c3ccccc3)cc2)cc1,"inconclusive [inhibitor, single point]",–
O=C(Nc1cccc(-c2cn3cccnc3n2)c1)Nc1ccccc1F,"inconclusive [inhibitor, single point]",–
Cc1cccc(OCCC(=O)NNC(=O)c2ccoc2C)c1,–,inactive: -28.6%
CN(CCOc1ccccc1)C(=O)c1cc(S(=O)(=O)N2CCOCC2)ccc1Cl,"inconclusive [inhibitor, single point]",–
O=C(NCc1cccs1)C1CC(O)CN1C(=O)Nc1ccccc1 (stereo not given),–,inactive: 16.9%
Cc1ccc(Nc2nc(N3CCOCC3)nc(N3CCOCC3)n2)cc1,"inconclusive [inhibitor, single point]",–
CC(=O)Nc1nc(-c2cc([N+](=O)[O-])cs2)cs1,–,inactive: -39.4% [at 1.15 µM]
CCCCSCCCNC(=O)c1cn(C)c2ccc(S(=O)(=O)N3CCCC3)cc2c1=O,"inconclusive [inhibitor, partial curve]",–
COC(=O)C1=C(c2ccc(C(C)=O)cc2)C[C@@H]2CC[C@H]1N2C(=O)NCc1ccco1,–,inactive: -20.6%
NC(=O)CC(NC(=O)c1ccccc1)c1ccc(NCCc2ccc(Cl)cc2)c([N+](=O)[O-])c1 (stereo not given),active: 13.1 µM,–
Nc1cc(Cl)ccc1Nc1ccncc1,–,inactive: 15.1%
CC1CC(C)CN(CCCNC(=O)CN2C(=O)c3cccnc3Oc3ccc(Cl)cc32)C1 (stereo not given),active: 10.4 µM,–
CCn1cc(C(=O)NCCCOC)c(=O)c2cc(S(=O)(=O)N(C)C3CCCCC3)ccc21,"inconclusive [inhibitor, partial curve]",–
Cc1ccc(OCC(=O)Nc2ccc(S(=O)(=O)N(C)C3CCN(C)CC3)cc2)c(C)c1,active: 11.7 µM,–
COc1ccccc1NC(=O)COC(=O)[C@@H]1CCCN1C(=O)c1cccs1,–,inactive: 6.82%
CC(C)=CCCC(C)CN1CCC(n2nccc2NC(=O)c2ccc3c(c2)OCO3)CC1 (stereo not given),active: 10.4 µM,–
COc1ccc(NC(=O)NNS(=O)(=O)c2ccc(Br)cc2)cc1,–,inactive: 10.9%
CCC(=O)N1CCc2cc(S(=O)(=O)NCCC(=O)Nc3ccccc3C)ccc21,"inconclusive [inhibitor, full curve, poor fit]",–
COc1cc(/C=N/OCC(=O)Nc2cc(C)on2)ccc1OCc1ccccc1,"inconclusive [inhibitor, single point]",–
C#CCOCCOCCOCCNc1nc(N2CCN(C(=O)C([C@@H](C)CC)n3cc(C(N)Cc4ccc(O)cc4)nn3)CC2)nc(N2CCN(C(=O)[C@H](CCC(=O)O)n3cc(C(N)CO)nn3)CC2)n1 (stereo not given in full),–,inactive: 3.26%

Compound,Potency,"activity change, negative = inhibition"
COc1ccccc1NC(=O)C1=C(C)NC(=O)NC1c1ccc(C)s1 (stereo not given),"inconclusive [inhibitor, single point]",–
COc1cc2ccccc2cc1C(=O)O,–,inactive: 10.6%
Cc1ccc2c(Cl)cc(Cl)c(OCC(=O)NC(=O)NCc3ccco3)c2n1,active: 2.33 µM,–
FC(F)(F)c1cc(-c2ccc(Cl)cc2)nc(NCc2cccnc2)n1,active: 3.7 µM,–
O=C1C2C3c4ccccc4C(c4ccccc43)C2C(=O)N1Cc1cccnc1 (stereo not given),–,inactive: -8.85%
O=C1NC(c2ccccc2)=NC1(NS(=O)(=O)c1ccccc1)C(F)(F)F (stereo not given),"inconclusive [inhibitor, single point]",–
CC(C(=O)Nc1ccc(S(=O)(=O)N2CCOCC2)cc1)N1CCN(c2ccccn2)CC1 (stereo not given),"inconclusive [inhibitor, full curve, poor fit]",–
Cc1ccccc1-n1ncc2c(SCC(=O)N3c4ccccc4CC3C)ncnc21 (stereo not given),"inconclusive [inhibitor, partial curve]",–
Cc1ccsc1/C=C1/SC(N2CC(C)OC(C)C2)=NC1=O (stereo not given),–,inactive: -15.2%
COc1ccccc1NC(=O)C(C)N(C)CCOc1ccccc1 (stereo not given),"inconclusive [inhibitor, single point]",–
Cc1cccc(C2=NCC(=O)N(CC(=O)NCc3ccco3)c3sc4c(c32)CCCC4)c1,"inconclusive [inhibitor, single point]",–
Oc1ccc(Cl)cc1-c1cc(-c2ccccc2Cl)[nH]n1,active: 9.28 µM,–
S=c1[nH]nc(C2CC2c2ccc(Cl)cc2)n1-c1ccc(Cl)cc1 (stereo not given),–,inactive: 6.57%
CCN(CC1CCCO1)C(=O)c1cc(COc2cc(C)c(Cl)c(C)c2)on1 (stereo not given),–,inactive: 1.75%
Cc1cccc2c1NC(=O)C21OCC(CO)([N+](=O)[O-])CO1 (stereo not given),–,inactive: 7.42%
CCOc1ccccc1OCC(=O)Nc1ccc(OC)c(S(=O)(=O)N2CCCCC2)c1,"inconclusive [inhibitor, single point]",–
O=C(O)c1ccccc1C(=O)Nc1ccccc1,–,inactive: 15%
O=[N+]([O-])c1cc(Cl)cc(/C=N\Nc2ccccn2)c1O,"inconclusive [inhibitor, full curve]",–
CCCC(C)C(=O)Nc1nc(C)c(-c2csc(Nc3ccc(Cl)cc3)n2)s1 (stereo not given),"inconclusive [inhibitor, full curve, poor fit]",–
CC[C@@]12C(=O)N(c3ccccc3)C(=O)N1[C@H](c1cccc(C)c1)[C@@H]1C(=O)N(Cc3ccccc3)C(=O)[C@@H]12,"inconclusive [inhibitor, full curve, poor fit]",–
CCCCN(C(=O)CCNC(=O)NC12CC3CC(CC(C3)C1)C2)c1c(N)n(CCC)c(=O)[nH]c1=O,"inconclusive [inhibitor, partial curve]",–
COc1cccc(C(=O)NNC(=O)c2ccc(NS(=O)(=O)c3cccs3)cc2)c1OC,active: 2.94 µM,–
COC(=O)Cn1c(C)c(C#N)c2ccccc21,–,inactive: 12.1%
NC(=O)CC(NC(=O)c1ccccc1)c1ccc(NCc2ccccc2)c([N+](=O)[O-])c1 (stereo not given),"inconclusive [inhibitor, partial curve]",–

Compound,Potency,"activity change, negative = inhibition"
CCC(=O)Nc1cccc(-c2cn3ccccc3n2)c1,–,inactive: 146%
Cc1ccc(NC(=O)CSCC(=O)N(C)CCOc2ccc(Cl)cc2)cc1,"inconclusive [inhibitor, full curve, poor fit]",–
CCOc1ccc(N(CC(=O)Nc2ccccc2C(=O)NCc2ccco2)S(C)(=O)=O)cc1,–,inactive: 9.66%
CCN(CCCn1c(=S)[nH]c2ccc(N3CCOCC3)cc2c1=O)c1ccccc1,"inconclusive [inhibitor, single point]",–
O=C(NCC(c1ccco1)N1CCN(c2ccccc2)CC1)c1ccc2c(c1)OCO2 (stereo not given),–,inactive: -18.1%
COC(=O)c1ccc(-n2c(C)ccc2-c2ccccc2)cc1,"inconclusive [inhibitor, partial curve]",–
COc1cc(NC(=O)Cc2ccc(Cl)cc2)ccc1NC(=O)c1ccco1,"inconclusive [inhibitor, full curve, poor fit]",–
COCCCNC(=O)C1CCC(CNS(=O)(=O)c2ccc(C)cc2)CC1 (stereo not given),active: 10.4 µM,–
CCOc1ccc(N2C(=O)/C(=C/c3ccco3)C(=O)NC2=S)cc1,–,inactive: 9.62%
O=C(NCc1ccco1)c1ccc(COc2ccc(Cl)cc2)cc1,"inconclusive [inhibitor, single point]",–
Cc1cccc(CC2S/C(=N/c3ccccn3)NC2=O)c1 (stereo not given),"inconclusive [inhibitor, partial curve]",–
Cc1nc(-c2ccc(F)cc2)c(CC(=O)N2CCN(S(=O)(=O)c3ccccc3Br)CC2)s1,"inconclusive [inhibitor, partial curve]",–
CCC(/C=C1\Sc2ccc(OC)cc2N1CCO)=C\c1sc2ccc(OC)cc2[n+]1CCO,active: 0.586 µM,–
Cc1ccc(O)c(N=Cc2cccs2)c1,"inconclusive [inhibitor, single point]",–
c1ccc(-n2c(SCc3nc(-c4cccs4)no3)nnc2-c2ccco2)cc1,"inconclusive [inhibitor, single point]",–
COC(=O)C1=C(c2ccc(OCc3ccccc3)cc2)C[C@@H]2CC[C@H]1N2C(=O)NCc1cccc(OC)c1,active: 3.7 µM,–
COc1cc(-c2nc(C(=O)NC3CCN(Cc4ccccc4)CC3)cc3c2[nH]c2ccccc23)cc(OC)c1OC,"inconclusive [inhibitor, full curve]",–
CC(C)(C)n1nnnc1C(c1cccc(C#N)c1)N1CCC(Cc2ccccc2)CC1 (stereo not given),active: 2.62 µM,–
CC1CCN(S(=O)(=O)c2ccc(NC(=O)N3c4ccccc4Sc4ccccc43)cc2)CC1,"inconclusive [inhibitor, partial curve]",–
Cc1ccc2[nH]c(O)c(N=NC(=O)C3CC3c3ccccc3)c2c1Br (stereo not given),"inconclusive [inhibitor, single point]",–
COC(=O)CC1NCCc2cc(OC)c(OC)cc21 (stereo not given),–,inactive: 2.98%
COC(=O)c1ccccc1S(=O)(=O)N1CCC(C(=O)OC(C)C(=O)Nc2ccccc2OC)CC1 (stereo not given),"inconclusive [inhibitor, single point]",–
